Screen size: about 110,000 compounds; about 230 (0.21%) showed an effect of 50% or more. This is one part of the list.
Target: DPAP1 (Plasmodium falciparum, UniProt Q8IIJ9)
Assay: primary screen, percent inhibition; read by cleavage of a fluorogenic dipeptide substrate; higher = more effect of the substance
Design: species or system P. falciparum D10 trophozoite lysates; single well
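Also: 30 min substrate incubation versus DMSO and 10 µM JCP410 controls.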

Sequence of DPAP1 (Q8IIJ9 whole entry, looked up): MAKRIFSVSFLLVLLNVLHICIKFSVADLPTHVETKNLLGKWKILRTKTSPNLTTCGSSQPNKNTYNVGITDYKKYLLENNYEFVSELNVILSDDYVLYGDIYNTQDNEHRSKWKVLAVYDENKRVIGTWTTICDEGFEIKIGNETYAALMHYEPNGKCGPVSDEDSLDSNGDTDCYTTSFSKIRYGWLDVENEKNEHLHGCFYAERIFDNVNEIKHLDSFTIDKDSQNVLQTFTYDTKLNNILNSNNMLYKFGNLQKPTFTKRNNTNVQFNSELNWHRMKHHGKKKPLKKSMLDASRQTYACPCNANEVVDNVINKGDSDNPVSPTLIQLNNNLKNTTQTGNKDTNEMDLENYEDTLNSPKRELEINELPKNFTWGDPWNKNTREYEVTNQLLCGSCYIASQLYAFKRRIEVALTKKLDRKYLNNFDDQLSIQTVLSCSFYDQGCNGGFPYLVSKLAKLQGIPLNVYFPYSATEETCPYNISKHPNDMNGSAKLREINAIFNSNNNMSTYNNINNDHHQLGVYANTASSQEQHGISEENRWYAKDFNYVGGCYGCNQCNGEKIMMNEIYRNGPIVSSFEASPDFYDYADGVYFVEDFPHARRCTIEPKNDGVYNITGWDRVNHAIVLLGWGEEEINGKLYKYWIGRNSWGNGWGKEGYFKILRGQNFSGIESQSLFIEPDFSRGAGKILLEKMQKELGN

| Structure (SMILES) | % Inhibition @ 10 uM |
| --- | --- |
| COc1ccc(NS(=O)(=O)c2ccc(NC(=O)COc3ccc(Cl)cc3C)cc2)cc1 | -0.992% |
| COc1ccc(C(=O)c2cnc3cc4c(cc3c2N2CCCCC2)OCO4)cc1 | -6.77% |
| CCc1ccc(Oc2nc3c(C)cccn3c(=O)c2/C=C(\C#N)C(=O)N2CCOCC2)cc1 | 0.315% |
| CCOC(=O)c1oc2cc(O)ccc2c(=O)c1-c1ccc2c(c1)OCCO2 | 3.93% |
| CCCn1c(=N)c(C(=O)NCCc2ccccc2)cc2c(=O)n3cc(C)ccc3nc21 | 1.76% |
| CCC1CCCCN1Cc1c(C)nc2ccc(C)cc2c1O (centres unmarked) | -4% |
| Cc1ccc(-n2nc(C)c(/C=N/c3sc4c(c3C#N)CCC4)c2O)cc1 | 0.674% |
| CC(CCCC(C)(C)O)NC1CCN(Cc2ccccc2)CC1 (centres unmarked) | 1.43% |
| COc1cccc(NC(=O)CN(c2cc(Cl)ccc2OC)S(C)(=O)=O)c1 | -0.185% |
| COc1ccc(-c2noc(N3CCC(C(=O)NCCN4CCc5ccccc5C4)CC3)n2)cc1 | 9.11% |
| COc1cc(OC)cc(C(=O)NCc2ccc(-n3cccc3)cc2)c1 | -0.403% |
| CN(C)S(=O)(=O)c1ccc(S(=O)(=O)N(Cc2ccc(Cl)cc2)Cc2ccco2)cc1 | -5.15% |
| COc1ccc(N(C(C)C(=O)Nc2cccc(Br)c2)S(C)(=O)=O)cc1 (centres unmarked) | 0.793% |
| O=C1Oc2ccccc2C(=O)/C1=C(O)/C=C/c1c[nH]c2ccccc12 | -6.91% |
| CSC1=NSC2=NC(=O)/C(=C\c3ccc(C)o3)C(=N)N12 | 0.8% |
| CCn1c(C)nc2cc(S(=O)(=O)N3CCCC3)ccc21 | -0.415% |
| Cc1ccc(S(=O)(=O)NCCc2ccc3c(c2)OCO3)cc1 | 3.53% |
| O=C(O)c1cccnc1Oc1ccc2c(c1)OCO2 | -0.631% |
| COc1ccc(CCNC(=O)OC(C)(C)C)cc1OC | -1.38% |
| Cc1nc2c(c(C)c1CCC(=O)N1CCN(C3CCCCC3)CC1)c(=O)n(C)c(=O)n2C | 52.7% |
| COc1cc(/C=C(\C#N)c2nn(CCO)c(N)c2C#N)ccc1OS(=O)(=O)c1ccc(F)cc1 | 19.3% |
| CCCNC(=O)c1cc(C)nc2c1c(C)nn2-c1ccc(C)cc1 | -1.97% |
| O=C1c2ccccc2C(=O)N1Cc1ccc2ccnc(Oc3ccccc3)c2c1 | 3.96% |
| COc1ccc(NS(=O)(=O)c2ccc(Cl)cc2)cc1 | -0.0404% |
| CS(=O)(=O)N(Cc1ccc(Cl)cc1)c1ccc(C(=O)NCCc2ccccc2)cc1 | -3.09% |

| Structure (SMILES) | % Inhibition @ 10 uM |
| --- | --- |
| Cc1ccccc1NC(=O)CC1Sc2ccccc2NC1=O (centres unmarked) | -8.66% |
| Cc1nn(C(F)F)c(C)c1C(=O)Nc1ccc(CN2CCCCC2)cc1 | -3.18% |
| COc1ccc(C2CC(C(F)(F)F)n3nc(C(=O)NCCN4CCOCC4)cc3N2)cc1 (centres unmarked) | 6.05% |
| CCOC(=O)c1c(NC(=O)/C=C/c2ccccc2)sc(C(C)=O)c1C | 20.3% |
| O=C(NCCc1nc2ccccc2[nH]1)c1ccccc1 | -6.82% |
| COc1ccc2ncc(C(=O)O)c(O)c2c1 | -2.48% |
| Clc1ccccc1C1N(Cc2ccccc2)CCN1Cc1ccccc1 | -0.233% |
| Cc1cc(=O)n(C)c(=O)n1Cc1ccccc1C#N | -0.222% |
| O=C1NC(=O)c2c1cc1c3c2C2C=CCC2CN3CC2CC=CC12 (centres unmarked) | 64.9% |
| CCC(=O)Nc1nc(C)nc(C)c1C(C)=O | -3.64% |
| N#CC1=C(N)Oc2c(cc(Cl)c3ccccc23)C1c1ccc(Cl)c(Cl)c1 (centres unmarked) | 6.06% |
| O=C(Nc1ccc([N+](=O)[O-])cc1)c1cccc(S(=O)(=O)Nc2ccccc2)c1 | 1.64% |
| COc1ccc(Br)cc1C1N(c2nccs2)C(=O)C2CCCN21 (centres unmarked) | 4.51% |
| Cc1ccn2c(C=O)c(-c3ccc(F)cc3)c(C=O)c2c1 | -3.04% |
| Cc1c(C(=O)NCCN2CCN(Cc3ccccc3)CC2)oc2ccccc12 | -2.77% |
| Cc1ccc(C)c(Oc2nc3c(c(=O)n(C)c(=O)n3C)n2Cc2ccc(F)cc2)c1 | -1.47% |
| O=C(Nc1ccc(N2CCOCC2)cc1)c1nc2ccccc2s1 | 0.323% |
| COc1cccc(NC(=O)Cn2nc(C(F)(F)F)cc2C2CC2)c1 | -3.18% |
| CCC(NC(=O)[C@H](CC1CCCCC1)/N=C(\NS(C)(=O)=O)N1CCOCC1)C(=O)c1nc2ccccc2o1 (some centres unmarked) | 0.079% |
| CCC(C)N1C(=O)S/C(=C/c2cn(C)c3ccccc23)C1=O (centres unmarked) | 1.28% |
| c1cc(-c2cccs2)nc(-c2cccs2)c1 | -5.98% |
| COc1ccc(NC(=O)c2cccc(S(=O)(=O)Nc3cccc(C(=O)O)c3)c2)cc1 | -3.52% |
| CC(C)CC(C(=O)NCC#N)n1cnc2c(N3CCN(C)CC3)ncnc21 (centres unmarked) | 3.19% |
| Cc1ccc(S(=O)(=O)N(CC(=O)NCc2ccccc2)c2ccc(F)cc2)cc1 | 0.323% |
| Cc1cc(C)c(C(=O)Nc2ccc(C)c([N+](=O)[O-])c2)c(C)c1 | -0.902% |

| Structure (SMILES) | % Inhibition @ 10 uM |
| --- | --- |
| Cc1ccc(CN2CCC(CNC(=O)Nc3cn(CC(C)C)c(=O)c4ccccc34)C2)cc1 (centres unmarked) | -0.705% |
| Cc1ccc(-n2ncc3c(=O)n(Cc4cccc(F)c4)cnc32)cc1C | -3.53% |
| O=C(COc1ccccc1Cl)Nc1ccc(S(=O)(=O)N2CCCCC2)cc1 | -6.17% |
| CC(C)C[C@H](NC(=O)c1cncc(Br)c1)C(=O)NCC#N | -5.2% |
| CCCCCCSc1nc(O)c(CC)c(=O)n1-c1ccccc1 | 0.827% |
| CNc1oc(-c2ccccc2)nc1C#N | 1.27% |
| c1ccc(CSc2ccc(-c3cccs3)nn2)nc1 | 1.95% |
| O=C(C1CCC(CNc2c(N3CCCC3)c(=O)c2=O)CC1)N1CCN(c2ncccn2)CC1 (centres unmarked) | 40.1% |
| CCOc1cccc(NC(=O)c2ccccc2Cl)c1 | 1.84% |
| OCCN1CCN(CC(O)COCC2COc3ccccc3O2)CC1 (centres unmarked) | -9.4% |
| CCOc1cc(CNCCc2cccc(F)c2)ccc1OC | 0.0504% |
| O=C(O)COc1ccc(/C=C2/NC(=O)NC2=O)cc1Br | -3.06% |
| CC(=O)c1c(C)n(-c2ccccc2)c2ccc(O)cc12 | 3.06% |
| O=C(CNC1CCCC1)Nc1nc(-c2ccc(Cl)cc2Cl)cs1 | 1.39% |
| O=C(O)CCC(=O)Nc1cccc(C(=O)Nc2cccc(Cl)c2)c1 | -7.27% |
| CC(=O)N(CCCN(C)C)c1nc2c(F)cccc2s1 | 1.51% |
| O=C(Nc1nnc(CCSc2ccc3ccccc3c2)s1)c1ccccc1 | 3.25% |
| CC(C)CN1C(=O)c2ccccc2C(C(=O)NCCCN2CCOCC2)C1c1cccs1 (centres unmarked) | -3.77% |
| CCCCN(Cc1ccccc1)C(=O)C1CCN(S(=O)(=O)c2c(C)noc2C)CC1 | -0.426% |
| O=C(CNS(=O)(=O)c1ccc(Br)s1)N1CCN(C(=O)c2ccco2)CC1 | -1.28% |
| O=C(CN1C(=O)C2CCCCC2C1=O)N1CCN(C(c2ccccc2)c2ccccc2)CC1 (centres unmarked) | -1.17% |
| O=C1CCC(=O)N1c1ccc2c(c1)oc1ccccc12 | -2.81% |
| O=C(Nc1ccccc1C(=O)NCc1cccnc1)c1ccc(Cl)cc1 | -6.16% |
| O=C(NCCN1CCCC1)c1cc2ccc3cccnc3c2[nH]1 | 8.23% |
| COc1cc(/C=C(\C#N)c2[nH]nc(N)c2C#N)ccc1OCc1ccccc1 | 2.7% |

| Structure (SMILES) | % Inhibition @ 10 uM |
| --- | --- |
| O=C(c1cc2c(s1)-c1ccccc1OC2)N1CCN(C2CCCCC2)CC1 | -1.37% |
| CCOc1ccc(N(CC(=O)Nc2ccc3c(c2)OCO3)S(C)(=O)=O)cc1 | -6.3% |
| O=c1c(-c2ccccc2)c(N2CCC(N3CCCCC3)CC2)c1=O | -1.4% |
| COc1ccc(OCC(=O)c2c(C)[nH]c3ccccc23)cc1 | -0.0372% |
| CC(C)(C)Nc1nc(Cl)nc(N2CCOCC2)n1 | -5.46% |
| O=C(Nc1cccc(C(=O)N2CCN(Cc3ccccc3)CC2)c1)c1ccccc1 | 2.37% |
| COc1ccc(CN2CCN(Cc3ccccc3C(F)(F)F)CC2)cc1OC | -8.86% |
| CCOC(=O)c1c(C)n(CCc2ccc(OC)c(OC)c2)c2ccc(OC)cc12 | 7.63% |
| CNc1nc(-c2ccccc2)cc(-c2ccccc2)n1 | 3.06% |
| COc1ccc(C2NC(c3ccc(OC)cc3)C(C)C(=O)C2C)cc1 (centres unmarked) | 7.57% |
| CCOC(=O)C1=C(N)OC2=C(C(=O)CCC2)C1c1ccc(CC)s1 (centres unmarked) | 0.685% |
| N#Cc1ccccc1CCN1C(=O)c2ccccc2C1=O | 2.02% |
| CCc1ccc(CNCc2c(C(=O)O)c(C)n(Cc3ccc(C)cc3)c2C)cc1 | 2.99% |
| COc1cc(SC)ccc1C(=O)Nc1ccc(Br)cc1C | -5.96% |
| Cc1oc(-c2ccc(C(=O)NCc3ccc4c(c3)OCO4)cc2)nc1CS(=O)(=O)c1ccccc1 | -3.84% |
| CC(=O)Nc1ccc(S(=O)(=O)Nc2c(C)nn(Cc3cccc4ccccc34)c2C)cc1 | 6.05% |
| NC(=O)C1CCN(C2CCN(CCc3ccccc3)CC2)CC1 | -1.81% |
| Cc1cc(C)n(C(C(=O)c2ccccc2)=C2SCCS2)n1 | 0.605% |
| O=C(NC1CCCc2ccccc21)c1cc2c(Cl)ccc3c2n1CCO3 (centres unmarked) | 0.453% |
| COc1ccc(CCNCc2c(C(=O)O)n(Cc3ccc(F)cc3Cl)c3ccccc23)c(OC)c1 | 3.54% |
| CCOC(=O)c1cnc2c(OC)cccc2c1NCC1COc2ccccc2O1 (centres unmarked) | 1.08% |
| COc1cccc(N2CCN(C3CC(=O)N(c4ccc(C)c(Cl)c4)C3=O)CC2)c1 (centres unmarked) | 4.82% |
| Cc1ccc(C(=O)Nc2ccccc2NC(=O)c2ccc(C)o2)o1 | 5.09% |
